The results in this text go back to publication PMC5591645 (Nature structural & molecular biology, 2017).

This test concerns the target T1, PPP1R15B amino acids 340–698 (R15B) (human, UniProt Q5SWA1 340-698).
T1 sequence: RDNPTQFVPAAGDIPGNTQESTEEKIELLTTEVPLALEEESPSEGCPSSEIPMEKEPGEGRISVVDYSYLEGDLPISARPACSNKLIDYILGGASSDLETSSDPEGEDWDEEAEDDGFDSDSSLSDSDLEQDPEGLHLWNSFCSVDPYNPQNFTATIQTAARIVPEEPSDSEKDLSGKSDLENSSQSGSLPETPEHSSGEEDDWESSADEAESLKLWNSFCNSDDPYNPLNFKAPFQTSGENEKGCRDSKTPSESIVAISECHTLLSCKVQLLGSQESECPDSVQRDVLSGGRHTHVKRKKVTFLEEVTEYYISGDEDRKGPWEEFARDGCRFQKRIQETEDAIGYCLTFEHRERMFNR
The test is described as follows: pull-down.

B1: human PP1α […] (PP1) (enzyme)
chain: not shown
modifications: Red-NHS dye label (Monolith NT Protein labeling Kit Red-NHS) in the thermophoresis experiments; unlabelled in the pull-down
As to B1, the binding result is “binds”.
